# Experimental data: PubChem BioAssay AID624296 (National Center for Advancing Translational Sciences (NCATS), 2012)
# In all, about 350,000 compounds went through this assay and about 9,900 (2.8%) were called active. The shares of active, inactive and inconclusive entries below differ from those in the screen. Calls follow the shape of the dose curve; as a rule, active = well fitted activation curve with a large enough effect; inconclusive = small, poorly fitted or top-dose-only effect; inactive = no such curve, though single readings can be large or run the other way. Potencies of inconclusive entries are left out as doubtful fits.
# Assay: A quantitative high throughput screen for small molecules that induce DNA re-replication in MCF 10a normal breast cells. Also: nearly all actives have a fitted effect of over 50% in size. As to activity, positive = re-replication: % of control where 0% means no effect.
# Conditions: MCF 10A DNA re-replication, Hoechst nuclear intensity, 48 h; activity, positive = re-replication: at 46.1 µM (top of the series)
# Potency is read from the fitted curve at half-maximal effect; tags tell the direction and shape of the fitted curve.
Structure (SMILES),"activity, positive = re-replication",Potency
COc1cc(NC(=O)c2ccc(S(=O)(=O)N(C)c3ccccc3)cc2)cc(OC)c1,inactive: 1.89%,–
COC(=O)Nc1ccc(S(=O)(=O)NCc2ccccn2)cc1,–,"inconclusive [activator, partial curve, poor fit]"
Cc1c(C(=O)Nc2cccc(Cl)c2)cn2c(nc3ccccc32)c1C#N,–,"inconclusive [activator, single point]"
O=C1NCCOC(=O)[C@@H](Cc2ccc(F)cc2)C/C=C\C[C@@H]1CC(=O)N(CCO)Cc1ccccc1,inactive: -2.42%,–
COc1cccc(C(CNC(=O)c2ccc(Cl)c(S(=O)(=O)N3CCCC3)c2)N(C)C)c1 (configuration not stated),–,"inconclusive [activator, partial curve, poor fit]"
CCOC(=O)COc1cccc2c(=O)n(CC(=O)NCCc3ccccc3)ccc12,inactive: 3.52%,–
CNC(=O)c1c(NC(=O)CS(=O)(=O)c2ccc(Cl)cc2)sc(C)c1C,inactive: 0.0505%,–
CC(C)(C)c1nnc(SCC(=O)Nc2ccc(N3CCCCC3)cc2)n1N,–,"inconclusive [activator, partial curve, poor fit]"
CC(C)n1cc(/C=C(\C#N)S(=O)(=O)c2ccccc2)c2ccccc21,–,"inconclusive [activator, single point]"
NC(=O)[C@@H]1CCCN1Cc1nc(Cc2cccc(C(F)(F)F)c2)no1,–,"inconclusive [activator, partial curve, poor fit]"
CCOc1cc(C(=O)N2CCN(C/C=C/c3ccccc3)CC2)cc(OCC)c1OCC,–,"inconclusive [activator, full curve]"
O=C(Nc1ccn(CCCN2CCN(c3ccccn3)CC2)c(=O)n1)OCc1ccccc1,inactive: 1.18%,–
Cc1cc(C(=O)N/N=C/c2cc(Br)cc(Br)c2OC(=O)c2cccc(F)c2)n[nH]1,–,active: 14.6 µM
COc1ccc2nc(Sc3c([N+](=O)[O-])nc(C)n3Cc3ccccc3)[nH]c2c1,–,"inconclusive [activator, single point]"
O=C(c1cn(-c2ccccc2)nc1-c1ccncc1)n1nnc2ccccc21,–,"inconclusive [activator, partial curve, poor fit]"
C[C@]12CCC(=O)C=C1CC[C@@H]1[C@@H]2C(=O)C[C@@]2(C)[C@H]1CC[C@]2(O)C(=O)CO,–,"inconclusive [activator, partial curve, poor fit]"
O=C(Nc1ccc2nn(-c3ccccc3)nc2c1)c1ccc2c(c1)OCCO2,–,"inconclusive [activator, single point]"
